We go through 21 molecules from patent US20080255128A1, “PHTHALAZINONE DERIVATIVES” (priority 2007, published 2008).

The target in this test is Mammalian PARP, isolated from Hela cell nuclear extract (Homo sapiens, UniProt P09874). In words: PARP inhibition assay (FlashPlate, 3H-NAD scintillation). In kind it is biochemical. The settings on record: NAD 5 μM, 30° C. As to the method:
In order to assess the inhibitory action of the compounds, the following assay was used to determine IC50 values (Dillon, et al., JBS., 8(3), 347-352 (2003)).
All compounds were diluted in DMSO and gave final assay concentrations of between 10 and 0.01 μM, with the DMSO being at a final concentration of 1% per well. The total assay volume per well was 40 μl.
After 10 minutes incubation at 30° C. the reactions were initiated by the addition of a 10 μl reaction mixture, containing NAD (5 μM), ^3H-NAD and 30mer double stranded DNA-oligos. Designated positive and negative reaction wells were done in combination with compound wells (unknowns) in order to calculate % enzyme activities. The plates were then shaken for 2 minutes and incubated at 30° C. for 45 minutes.
Following the incubation, the reactions were quenched by the addition of 50 μl 30% acetic acid to each well. The plates were then shaken for 1 hour at room temperature.
The plates were transferred to a TopCount NXT (TRADE MARK) (Packard, UK) for scintillation counting. Values recorded are counts per minute (cpm) following a 30 second counting of each well.
The % enzyme activity for each compound is then calculated using the following equation: […]
IC50 values (the concentration at which 50% of the enzyme activity is inhibited) were calculated, which are determined over a range of different concentrations, normally from 10 μM down to 0.001 μM. Such IC50 values are used as comparative values to identify increased compound potencies.

One may read the IC50 as the concentration that inhibits the measured activity by half.

As for `C[C@H]1C(=O)N(c2cc(Cc3n[nH]c(=O)c4ccccc34)ccc2F)C(=O)N1CCNCc1ccccn1` [Compound 26], the IC50 was 3.7 nM. Next, `C[C@H]1C(=O)N(c2cc(Cc3n[nH]c(=O)c4ccccc34)ccc2F)C(=O)N1CCN1CCCCC1` [Compound 21]: 2.6 nM. Next, `CC(C)N(C)CCN1C(=O)N(c2cc(Cc3n[nH]c(=O)c4ccccc34)ccc2F)C(=O)[C@@H]1C` [Compound 17]: 4 nM; `COCCNCCN1C(=O)N(c2cc(Cc3n[nH]c(=O)c4ccccc34)ccc2F)C(=O)[C@@H]1C` [Compound 18]: 3.8 nM; `C[C@H]1C(=O)N(c2cc(Cc3n[nH]c(=O)c4ccccc34)ccc2F)C(=O)N1CCNCCF` [Compound 13]: 3.1 nM. `CC(C)N(CCO)CCN1C(=O)N(c2cc(Cc3n[nH]c(=O)c4ccccc34)ccc2F)C(=O)[C@@H]1C` [Compound 24]: the half-maximal inhibitory concentration (IC50) came to 3.6 nM. With `C[C@H]1C(=O)N(c2cc(Cc3n[nH]c(=O)c4ccccc34)ccc2F)C(=O)N1CCN1CCCC1c1ccco1` (stereo partly drawn) [Compound 29], the IC50 was determined as 3.9 nM. As for `C[C@H]1C(=O)N(c2cc(Cc3n[nH]c(=O)c4ccccc34)ccc2F)C(=O)N1CCN(C)C1CCCCC1` [Compound 27], the figure is 3 nM; as for `C[C@H]1C(=O)N(c2cc(Cc3n[nH]c(=O)c4ccccc34)ccc2F)C(=O)N1CCN1CCSCC1` [Compound 25], 2.8 nM; as for `C[C@H]1C(=O)N(c2cc(Cc3n[nH]c(=O)c4ccccc34)ccc2F)C(=O)N1CCN1CC=CCC1` [Compound 19], 4 nM. As for `CC1C(=O)N(c2cc(Cc3n[nH]c(=O)c4ccccc34)ccc2F)C(=O)N1CCN1CCCC1` (racemic) [Compound 9, 3-(2-fluoro-5-((4-oxo-3,4-dihydrophthalazin-1-yl)methyl)phenyl)-5-methyl-1-(2-(pyrrolidin-1-yl)ethyl)imidazolidine-2,4-dione], the figure is 3.8 nM.

Take `CCC1CCCCN1CCN1C(=O)N(c2cc(Cc3n[nH]c(=O)c4ccccc34)ccc2F)C(=O)[C@@H]1C` (stereo partly drawn) [Compound 28]: the IC50 stood at 4.2 nM. Next, `C[C@H]1C(=O)N(c2cc(Cc3n[nH]c(=O)c4ccccc34)ccc2F)C(=O)N1CCN(C)C` [Compound 11]: 3.3 nM. Turning to `C[C@H]1C(=O)N(c2cc(Cc3n[nH]c(=O)c4ccccc34)ccc2F)C(=O)N1CCNC(C)(C)C` [Compound 16], the IC50 was 2.9 nM. On to `C[C@@H]1CN(CCN2C(=O)N(c3cc(Cc4n[nH]c(=O)c5ccccc45)ccc3F)C(=O)[C@@H]2C)C[C@H](C)O1` [Compound 10], for which the IC50 is 3.1 nM. As for `C=CCN(C)CCN1C(=O)N(c2cc(Cc3n[nH]c(=O)c4ccccc34)ccc2F)C(=O)[C@@H]1C` [Compound 14], the figure is 3.5 nM; as for `CCN(CC)CCN1C(=O)N(c2cc(Cc3n[nH]c(=O)c4ccccc34)ccc2F)C(=O)[C@@H]1C` [Compound 15], 3 nM. Take `CC1CCCN1CCN1C(=O)N(c2cc(Cc3n[nH]c(=O)c4ccccc34)ccc2F)C(=O)[C@@H]1C` (stereo partly drawn) [Compound 20]: the IC50 is 3.2 nM. As to `CC1CCCCN1CCN1C(=O)N(c2cc(Cc3n[nH]c(=O)c4ccccc34)ccc2F)C(=O)[C@@H]1C` (stereo partly drawn) [Compound 22], the IC50 turned out to be 2.9 nM. As for `C[C@H]1C(=O)N(c2cc(Cc3n[nH]c(=O)c4ccccc34)ccc2F)C(=O)N1CCN1CCCC(O)C1` (stereo partly drawn) [Compound 23], the figure is 4.6 nM; as for `CCN(C)CCN1C(=O)N(c2cc(Cc3n[nH]c(=O)c4ccccc34)ccc2F)C(=O)[C@@H]1C` [Compound 12], 3 nM.
